Laboratory results published in PMC11149917, “Translational and Therapeutic Evaluation of RAS-GTP Inhibition by RMC-6236 in RAS-Driven Cancers” (Cancer Discovery, 2024).
Further values from the same series stand in other lists.

Tested on: PRISM panel of 845 cancer cell lines
Experiment: PRISM assay
Assay type: cell-based, human
Procedure: The PRISM cell set comprised 845 cell lines representing more than 45 lineages (see Supplementary Table S1 for cell line information), which largely overlapped with the Cancer Cell Line Encyclopedia; https://portals.broadinstitute.org/ccle). Cell lines were grown in RPMI without phenol red and supplemented with 10% or 20% FBS for adherent and suspended lines, respectively. Parental cell lines were stably infected with a unique 24-nucleotide DNA barcode via lentiviral transduction and blasticidin selection. After selection, barcoded cell lines were expanded and subjected to quality control (Mycoplasma contamination test, an SNP test for confirming cell line identity, and barcode ID confirmation). Approved cell lines were then pooled (20–25 cell lines per pool) based on doubling time similarity and frozen in assay-ready vials.
RMC-6236 was added to 384-well plates at 8-point concentration with 3-fold dilutions in triplicate. These assay-ready plates were then seeded with the thawed cell line pools. Adherent cell pools were plated at 1,250 cells per well, whereas suspension and mixed adherent/suspension pools were plated at 2,000 cells per well. Treated cells were incubated for 5 days, and then lysed. Lysate plates were collapsed together prior to barcode amplification and detection.
Each cell line's unique barcode is located in the 3′UTR of the blasticidin-resistance gene and therefore is expressed as mRNA. Total mRNA was captured using magnetic particles that recognize polyA sequences. Captured mRNA was reverse-transcribed into cDNA and then the sequence containing the unique PRISM barcode was amplified using PCR. Finally, Luminex beads that recognize the specific barcode sequences in the cell set were hybridized to the PCR products and detected using a Luminex scanner which reports the signal as a median fluorescent intensity (MFI).
• Each detection well contained 10 control barcodes in increasing abundances as spike-in controls. For each plate, we first create a reference profile by calculating the median of the log2(MFI) values across negative control wells for each of these spiked-in barcodes. • For each well, a monotonic smooth p-spline was fitted to map the spike-in control levels to the reference profile. Next, we transform the log2(MFI) for each cell barcode using the fitted spline to allow well-to-well comparisons by correcting for amplification and detection artifacts. • Next, the separability between negative and positive control treatments was assessed. In particular, we calculated the error rate of the optimum simple threshold classifier between the control samples for each cell line and plate combination. The error rate is a measure of the overlap of the two control sets and was defined as error = (FP + FN)/n, where FP is false positives, FN is false negatives, and n is the total number of controls. A threshold was set between the distributions of positive and negative control log2(MFI) values (with everything below the threshold said to be positive and above said to be negative) such that this value is minimized. Additionally, we also calculated the dynamic range of each cell line. […] Additionally, any cell line that had less than 2 passing replicates was also omitted for the sake of reproducibility. Finally, we computed viability by normalizing with respect to the median negative control for each plate.
For every gene with nonsilent mutations in at least four cell lines, we compared the AUC values between cells with and without those mutations using a t test. This analysis was carried out for (i) the full data set; (ii) excluding cell lines with nonsilent KRAS mutations; and (iii) excluding cell lines that have either KRAS or NRAS nonsilent mutations.

CCn1c(-c2cc(N3CCN(C)CC3)cnc2[C@H](C)OC)c2c3cc(ccc31)-c1csc(n1)C[C@H](NC(=O)[C@H]1C[C@@H]1C)C(=O)N1CCC[C@H](N1)C(=O)OCC(C)(C)C2 [RMC-6236]
RMC-6236: RevMed PRISM: AUC (cell line SKMEL24_SKIN): 0.8099
RMC-6236: RevMed PRISM: AUC (cell line SKNMC_BONE): 0.9307
RMC-6236: RevMed PRISM: AUC (cell line SMSCTR_SOFT_TISSUE, HRAS p.Q61K): 0.448
RMC-6236: RevMed PRISM: AUC (cell line SNB75_CENTRAL_NERVOUS_SYSTEM): 0.7427
RMC-6236: RevMed PRISM: AUC (cell line SNU1_STOMACH, KRAS p.G12D): 0.4901
RMC-6236: RevMed PRISM: AUC (cell line SNU81_LARGE_INTESTINE, KRAS p.A146T, NRAS p.E132K): 0.8361
RMC-6236: RevMed PRISM: AUC (cell line SNU201_CENTRAL_NERVOUS_SYSTEM): 0.9124
RMC-6236: RevMed PRISM: AUC (cell line SNU308_BILIARY_TRACT): 0.6147
RMC-6236: RevMed PRISM: AUC (cell line SNU407_LARGE_INTESTINE, KRAS p.G12D): 0.5721
RMC-6236: RevMed PRISM: AUC (cell line SNU449_LIVER): 0.8623
RMC-6236: RevMed PRISM: AUC (cell line SNU466_CENTRAL_NERVOUS_SYSTEM): 0.4954
RMC-6236: RevMed PRISM: AUC (cell line SNU638_STOMACH): 0.8249
RMC-6236: RevMed PRISM: AUC (cell line SNU719_STOMACH, NRAS p.Q61L): 0.5187
RMC-6236: RevMed PRISM: AUC (cell line SNU761_LIVER): 1
RMC-6236: RevMed PRISM: AUC (cell line SNU840_OVARY): 0.6568
RMC-6236: RevMed PRISM: AUC (cell line SNU886_LIVER): 0.654
RMC-6236: RevMed PRISM: AUC (cell line SNU1041_UPPER_AERODIGESTIVE_TRACT): 0.6882
RMC-6236: RevMed PRISM: AUC (cell line SNUC4_LARGE_INTESTINE): 0.799
RMC-6236: RevMed PRISM: AUC (cell line SQ1_LUNG): 0.6318
RMC-6236: RevMed PRISM: AUC (cell line STM9101_SOFT_TISSUE): 0.9112
RMC-6236: RevMed PRISM: AUC (cell line SUM159PT_BREAST, HRAS p.G12D): 0.7173
RMC-6236: RevMed PRISM: AUC (cell line SUPB15_HAEMATOPOIETIC_AND_LYMPHOID_TISSUE): 0.7241
RMC-6236: RevMed PRISM: AUC (cell line SW13_ADRENAL_CORTEX): 0.6892
RMC-6236: RevMed PRISM: AUC (cell line SW1353_BONE): 0.9995
RMC-6236: RevMed PRISM: AUC (cell line SW1710_URINARY_TRACT): 0.8584
RMC-6236: RevMed PRISM: AUC (cell line TANOUE_HAEMATOPOIETIC_AND_LYMPHOID_TISSUE): 0.6225
RMC-6236: RevMed PRISM: AUC (cell line TC205_BONE): 0.8932
RMC-6236: RevMed PRISM: AUC (cell line TCCSUP_URINARY_TRACT): 0.8252
RMC-6236: RevMed PRISM: AUC (cell line TE4_OESOPHAGUS): 0.7638
RMC-6236: RevMed PRISM: AUC (cell line TE9_OESOPHAGUS): 0.7204
RMC-6236: RevMed PRISM: AUC (cell line TE617T_SOFT_TISSUE): 0.4026
RMC-6236: RevMed PRISM: AUC (cell line TFK1_BILIARY_TRACT): 0.8395
RMC-6236: RevMed PRISM: AUC (cell line TM87_SOFT_TISSUE): 0.8548
RMC-6236: RevMed PRISM: AUC (cell line TOV21G_OVARY, KRAS p.G13C): 0.6993
RMC-6236: RevMed PRISM: AUC (cell line TTC442_SOFT_TISSUE): 0.8703
RMC-6236: RevMed PRISM: AUC (cell line TTC549_SOFT_TISSUE): 0.8297
RMC-6236: RevMed PRISM: AUC (cell line TTC1240_SOFT_TISSUE): 0.7124
RMC-6236: RevMed PRISM: AUC (cell line UACC257_SKIN): 0.8972
RMC-6236: RevMed PRISM: AUC (cell line UMRC3_KIDNEY): 0.8143
RMC-6236: RevMed PRISM: AUC (cell line UMUC13_URINARY_TRACT): 0.5595
RMC-6236: RevMed PRISM: AUC (cell line VMRCRCZ_KIDNEY): 0.8774
RMC-6236: RevMed PRISM: AUC (cell line WERIRB1_AUTONOMIC_GANGLIA): 0.8
RMC-6236: RevMed PRISM: AUC (cell line WM793_SKIN): 0.8128
RMC-6236: RevMed PRISM: AUC (cell line WSUDLCL2_HAEMATOPOIETIC_AND_LYMPHOID_TISSUE): 0.7311
RMC-6236: RevMed PRISM: AUC (cell line YD15_SALIVARY_GLAND): 0.7048
RMC-6236: RevMed PRISM: AUC (cell line YH13_CENTRAL_NERVOUS_SYSTEM): 0.941
RMC-6236: RevMed PRISM: AUC (cell line YKG1_CENTRAL_NERVOUS_SYSTEM): 0.7657
